Experimental data published in article PMC11995724, “Antibiotic target discovery by integrated phenotypic and activity-based profiling of electrophilic fragments” (Cell chemical biology, 2025).
Out of some 3,200 compounds screened, about 75 (2%) showed an effect of 50% or more. This is one part of the list.

Each compound was assayed on T1, S. aureus MSSA476. Details: relative growth, OD600, TSB; 25 µM; inhibitor.
T1 construct: MSSA476
Set-up: species or system S. aureus MSSA476 (TSB) or V. cholerae SAD30 (LB); 384-well bacterial growth screen at 25 uM, OD600 relative to DMSO control

SMILES | % of control remaining [%]
C=CC(=O)NCc1noc(-c2cccs2)n1 [3-H15, N-{[5-(thiophen-2-yl)-1,2,4-oxadiazol-3-yl]methyl}prop-2-enamide] | 78.7114
C=CC(=O)N1CCCCC(S(C)(=O)=O)C1 (stereo not shown) [2-E17, 1-(3-methanesulfonylazepan-1-yl)prop-2-en-1-one] | 110.357
O=C(CCl)NCCc1ccc(Cl)cc1Cl [6-M16, 2-chloro-N-[2-(2,4-dichlorophenyl)ethyl]acetamide] | 93.9024
Cc1oc(C(=O)O)cc1C(=O)CCl [10-M21, 4-(2-chloroacetyl)-5-methylfuran-2-carboxylic acid] | 105.625
N#CC(=Cc1cccc(-c2ccncc2)c1)C(=O)NCc1ccco1 [9-B06, 2-cyano-N-[(furan-2-yl)methyl]-3-[3-(pyridin-4-yl)phenyl]prop-2-enamide] | 73.7079
COc1ccccc1CN(C)C(=O)CCl [6-C09, 2-chloro-N-[(2-methoxyphenyl)methyl]-N-methylacetamide] | 82.2927
CC(C)C(C(=O)O)N1C(=O)C=CC1=O (stereo not shown) [10-I22, 2-(2,5-dioxo-2,5-dihydro-1H-pyrrol-1-yl)-3-methylbutanoic acid] | 115.625
N#CC(=Cc1ccc(-c2ccc(F)cc2)o1)C(=O)NC1CCCCC1 [9-H17, 2-cyano-N-cyclohexyl-3-[5-(4-fluorophenyl)furan-2-yl]prop-2-enamide] | 86.8914
CC(=O)Nc1c(C)cc(C)c(C(=O)CCl)c1C [10-A12, N-[3-(2-chloroacetyl)-2,4,6-trimethylphenyl]acetamide] | 116.875
CC(C)NC(=O)C(C#N)=Cc1ccc(-c2ccc([N+](=O)[O-])cc2)o1 [8-I19, 2-cyano-3-[5-(4-nitrophenyl)furan-2-yl]-N-(propan-2-yl)prop-2-enamide] | 100.249
C=CC(=O)NCc1ncnn1-c1ccccc1 [3-H11, N-[(1-phenyl-1H-1,2,4-triazol-5-yl)methyl]prop-2-enamide] | 105.877
Cn1cc(C(=O)CCl)cc1C(=O)C(Cl)(Cl)Cl [10-N22, 2,2,2-trichloro-1-[4-(2-chloroacetyl)-1-methyl-1H-pyrrol-2-yl]ethan-1-one] | 99.0625
Cl.O=C(CCl)NCC(c1ccccc1Cl)N1CCCC1 (stereo not shown) [6-G17, 2-chloro-N-[2-(2-chlorophenyl)-2-(pyrrolidin-1-yl)ethyl]acetamide hydrochloride] | 101.415
CC(NC(=O)C(C#N)=Cc1ccccc1)C12CC3CC(CC(C3)C1)C2 (stereo not shown) [8-N20, N-[1-(adamantan-1-yl)ethyl]-2-cyano-3-phenylprop-2-enamide] | 98.2573
O=S(=O)(CC=C(Cl)Cl)N1CCSSCC1 [10-P19, 5-(3,3-dichloroprop-2-ene-1-sulfonyl)-1,2,5-dithiazepane] | 108.75
Cc1cc(C(=O)C(C)Cl)c(C)n1Cc1ccco1 (stereo not shown) [10-E06, 2-chloro-1-{1-[(furan-2-yl)methyl]-2,5-dimethyl-1H-pyrrol-3-yl}propan-1-one] | 106.25
CC(C)C(NC(=O)CCl)c1ccccc1 (stereo not shown) [4-K11, 2-chloro-N-(2-methyl-1-phenylpropyl)acetamide] | 106.717
C=CC(=O)Nc1cc(C)cc(S(C)(=O)=O)c1 [3-F14, N-(3-methanesulfonyl-5-methylphenyl)prop-2-enamide] | 108.663
Cn1cc(C=C(C#N)C(=O)Nc2ccc(Oc3ccccc3)cc2)cn1 [9-M10, 2-cyano-3-(1-methyl-1H-pyrazol-4-yl)-N-(4-phenoxyphenyl)prop-2-enamide] | 94.0824
CC(Cl)C(=O)NCc1cnn2ccccc12 (stereo not shown) [7-M13, 2-chloro-N-({pyrazolo[1,5-a]pyridin-3-yl}methyl)propanamide] | 91.9937
COc1ccccc1NC(=O)C(C#N)=Cc1ccco1 [8-H08, 2-cyano-3-(furan-2-yl)-N-(2-methoxyphenyl)prop-2-enamide] | 91.9502
N#CC(=Cc1ccc(Cl)c([N+](=O)[O-])c1)C(=O)N1CCCC1 [9-N05, 3-(4-chloro-3-nitrophenyl)-2-(pyrrolidine-1-carbonyl)prop-2-enenitrile] | 107.566
C=CC(=O)N1CCC(C(=O)N2CCC(C(=O)NCC(C)C)CC2)CC1 [3-C17, N-(2-methylpropyl)-1-[1-(prop-2-enoyl)piperidine-4-carbonyl]piperidine-4-carboxamide] | 96.4737

SMILES | % of control remaining [%]
N#CC(=Cc1ccco1)C(=O)NS(=O)(=O)N1CCc2ccccc21 [9-J18, 2-cyano-N-(2,3-dihydro-1H-indole-1-sulfonyl)-3-(furan-2-yl)prop-2-enamide] | 71.0112
C=CC(=O)NCc1nc(C2CC2)cs1 [2-A19, N-[(4-cyclopropyl-1,3-thiazol-2-yl)methyl]prop-2-enamide] | 138.207
C=CC(=O)NCC(C)c1ncc(C)s1 (stereo not shown) [1-P10, N-[2-(5-methyl-1,3-thiazol-2-yl)propyl]prop-2-enamide] | 101.626
COCC1(NC(=O)C(C)Cl)CC=CCC1 (stereo not shown) [6-J13, 2-chloro-N-[1-(methoxymethyl)cyclohex-3-en-1-yl]propanamide] | 98.6829
O=C(CCl)Cc1cccc(Cl)c1 [10-E17, 1-chloro-3-(3-chlorophenyl)propan-2-one] | 119.375
C=CC(=O)N1CCCCC1c1nc2ccccc2n1C (stereo not shown) [3-F04, 1-[2-(1-methyl-1H-1,3-benzodiazol-2-yl)piperidin-1-yl]prop-2-en-1-one] | 107.619
CC(Cl)C(=O)NCc1csc(-c2ccco2)n1 (stereo not shown) [7-K05, 2-chloro-N-{[2-(furan-2-yl)-1,3-thiazol-4-yl]methyl}propanamide] | 93.8776
CC(Cl)C(=O)N(C)Cc1ccnn1C (stereo not shown) [5-L17, 2-chloro-N-methyl-N-[(1-methyl-1H-pyrazol-5-yl)methyl]propanamide] | 119.49
N#CC(=Cc1cc(F)ccc1F)C(=O)Nc1ccc(F)cc1 [8-E10, 2-cyano-3-(2,5-difluorophenyl)-N-(4-fluorophenyl)prop-2-enamide] | 122.158
Cc1nn(CC(C)C)c(Cl)c1C1CCCN1C(=O)CCl (stereo not shown) [5-L13, 2-chloro-1-{2-[5-chloro-3-methyl-1-(2-methylpropyl)-1H-pyrazol-4-yl]pyrrolidin-1-yl}ethan-1-one] | 83.0601
CC(Cl)C(=O)Nc1ccccc1F (stereo not shown) [5-L10, 2-chloro-N-(2-fluorophenyl)propanamide] | 117.304
N#CCCN(C(=O)CCl)c1ccccc1F [5-P07, 2-chloro-N-(2-cyanoethyl)-N-(2-fluorophenyl)acetamide] | 109.29
Cc1cc(C=C(C#N)C(=O)N2CC[C@H](O)C2)c(C)n1CC1CCCO1 (stereo partly drawn) [9-P04, 3-{2,5-dimethyl-1-[(oxolan-2-yl)methyl]-1H-pyrrol-3-yl}-2-[(3S)-3-hydroxypyrrolidine-1-carbonyl]prop-2-enenitrile] | 100.674
O=C(CCl)NC1C=C(c2ccc(Cl)cc2)CCC1 (stereo not shown) [7-P08, 2-chloro-N-[3-(4-chlorophenyl)cyclohex-2-en-1-yl]acetamide] | 75.0392
CC(Cl)C(=O)NCc1nnc(-c2ccncc2F)s1 (stereo not shown) [7-K18, 2-chloro-N-{[5-(3-fluoropyridin-4-yl)-1,3,4-thiadiazol-2-yl]methyl}propanamide] | 102.355
CCn1nc(C)c(CN(C)C(=O)CCl)c1C [5-A10, 2-chloro-N-[(1-ethyl-3,5-dimethyl-1H-pyrazol-4-yl)methyl]-N-methylacetamide] | 92.5319
CCn1ncc(C(=O)CCl)n1 [10-E13, 2-chloro-1-(2-ethyl-2H-1,2,3-triazol-4-yl)ethan-1-one] | 103.125
COc1cccc(NC(=O)C(C#N)=Cc2ccc(O)cc2)c1 [8-O17, 2-cyano-3-(4-hydroxyphenyl)-N-(3-methoxyphenyl)prop-2-enamide] | 105.892
Cc1nc(CNC(=O)N2CCSSCC2)cs1 [10-O18, N-[(2-methyl-1,3-thiazol-4-yl)methyl]-1,2,5-dithiazepane-5-carboxamide] | 110
Cc1ccc(Sc2ccc(NC(=O)CCl)cc2)c(C)c1 [4-I03, 2-chloro-N-{4-[(2,4-dimethylphenyl)sulfanyl]phenyl}acetamide] | 101.763
C=CC(=O)NCCc1nnc(-c2ccccc2)o1 [3-J09, N-[2-(5-phenyl-1,3,4-oxadiazol-2-yl)ethyl]prop-2-enamide] | 123.64
CC1CC(NC(=O)C(C)Cl)=NO1 (stereo not shown) [5-J21, 2-chloro-N-(5-methyl-4,5-dihydro-1,2-oxazol-3-yl)propanamide] | 90.3461
CCn1c2ccccc2c2cc(NC(=O)CCl)ccc21 [4-D06, 2-chloro-N-(9-ethyl-9H-carbazol-3-yl)acetamide] | 73.1777
